Measurements from US8222297B2, “Aniline or phenol mustards linked to DNA-affinic molecules or water-soluble aromatic rings and their use as cancer therapeutic agents” (Academia Sinica, priority 2007, dated 2012).

Test system: CCRF-CEM/VBL
Details: for fold of cross-resistant, CCRF-CEM/VBL vs IC50 of parent cell line: number in brackets
[1] = read-out: IC50 CCRF-CEM/VBL, XTT assay, 72-hr incubation
[2] = Homo sapiens, CCRF-CEM, 72 h, read-out: IC50 CCRF-CEM/VBL, XTT assay, 72-hr incubation

## 1-{4-[Bis-(2-chloroethyl)amino]phenyl-3-[6-methoxy-2-(4-methoxyphenyl)quinolin-4-yl]urea [BO-1049]
  fold of cross-resistant, CCRF-CEM/VBL vs IC50 of parent cell line: 1.5 x
[1]
  IC50: 551 nM

## O=C(Nc1ccc(N(CCCl)CCCl)cc1)Nc1c2ccccc2nc2ccccc12 [BO-1034, 1-Acridin-9-yl-3{4-[bis(2-chloroethyl)amino]phenyl}urea]
  fold of cross-resistant, CCRF-CEM/VBL vs IC50 of parent cell line: 2.0 x

## Cc1cc(NC(=O)Nc2ccc(N(CCCl)CCCl)cc2)c2ccccc2n1 [BO-1038, 1-{4-[Bis(2-chloroethyl)amino]phenyl}-3-(2-methyl-quinolin-4-yl)urea]
  fold of cross-resistant, CCRF-CEM/VBL vs IC50 of parent cell line: 3.4 x

## Cc1cccc2c(Nc3cc(CO)cc(NC(=O)Nc4ccc(N(CCCl)CCCl)cc4)c3)c3ccccc3nc12 [BO-1050, 1-{4-[bis(2-chloroethyl)amino]phenyl}-3-[3-hydroxymethyl-5-(4-methylacridin-9-ylamino)phenyl]urea]
[2]
  IC50: 1320 nM
  fold of cross-resistant, CCRF-CEM/VBL vs IC50 of parent cell line: 4.4 x

## Cc1ccc(NC(=O)Nc2ccc(N(CCCl)CCCl)cc2)cc1Nc1c2cccc(C)c2nc2c(C(=O)NCCN(C)C)cccc12 [BO-1053, 9-[5-(3-{4-[Bis(2-chloroethyl)amino]phenyl}ureido)-2-methylphenylamino]-5-methylacridine-4-carboxylic acid (2-dimethylaminoethyl)amide]
  fold of cross-resistant, CCRF-CEM/VBL vs IC50 of parent cell line: 25.3 x

## CN(C)CCNC(=O)c1cccc(NC(=O)Nc2ccc(N(CCCl)CCCl)cc2)c1.Cl [BO-1055, 3-(3-{4-[Bis(2-chloroethyl)amino]phenyl}ureido)-N-(2-dimethylaminoethyl)benzamide hydrochloride]
  fold of cross-resistant, CCRF-CEM/VBL vs IC50 of parent cell line: 6.2 x
[1]
  IC50: 791 nM

## O=C(Nc1cc(CO)cc(Nc2c3ccccc3nc3ccccc23)c1)Oc1ccc(N(CCCl)CCCl)cc1 [BO-1062, [3-(Acridin-9-ylamino)-5-hydroxymethylphenyl]carbamic acid 4-[bis(2-chloro-ethyl)amino]phenyl ester]
[2]
  IC50: 194 nM
  fold of cross-resistant, CCRF-CEM/VBL vs IC50 of parent cell line: 3.4 x

## Cc1cccc2c(Nc3cc(CO)cc(NC(=O)Oc4ccc(N(CCCl)CCCl)cc4)c3)c3ccccc3nc12 [BO-1063, [3-Hydroxymethyl-5-(4-methylacridin-9-ylamino)phenyl]carbamic acid 4-[bis(2-chloroethyl)amino]phenyl ester]
  fold of cross-resistant, CCRF-CEM/VBL vs IC50 of parent cell line: 1.8 x

## Cc1ccc(Nc2c3ccccc3nc3c(C)cccc23)cc1NC(=O)Oc1ccc(N(CCCl)CCCl)cc1 [BO-1064, [2-Methyl-5-(4-methylacridin-9-ylamino)phenyl]carbamic acid 4-[bis(2-chloro-ethyl)amino]phenyl ester]
[2]
  IC50: 146 nM
  fold of cross-resistant, CCRF-CEM/VBL vs IC50 of parent cell line: 1.3 x

## COc1cc(NC(=O)Oc2ccc(N(CCCl)CCCl)cc2)cc(Nc2c3ccccc3nc3ccccc23)c1 [BO-1066, [3-(Acridin-9-ylamino)-5-methoxyphenyl]carbamic acid 4-[bis(2-chloroethyl)-amino]phenyl ester]
  fold of cross-resistant, CCRF-CEM/VBL vs IC50 of parent cell line: 0.52 x

## CC(=O)O[C@H]1C(=O)[C@@]2(C)[C@H]([C@H](OC(=O)c3ccccc3)[C@]3(O)C[C@H](OC(=O)[C@H](O)[C@@H](NC(=O)c4ccccc4)c4ccccc4)C(C)=C1C3(C)C)[C@]1(OC(C)=O)CO[C@@H]1C[C@@H]2O [Taxol, reference compound]
  fold of cross-resistant, CCRF-CEM/VBL vs IC50 of parent cell line: 980 x

Where two headings read alike, the source gives them in different places.
